Experimental data: publication PMC4336329 (PLoS ONE, 2015)
The whole screen tested about 310,000 compounds, of which about 2,200 (0.71%) showed an effect of 50% or more. The effect is printed as a negative number. Some of the results follow.

Target: human ether-à-go-go-related gene (hERG) potassium channel (human, UniProt Q12809)
Experiment: primary screen, population patch clamp on CHO cells stably expressing hERG

Chain of human ether-à-go-go-related gene (hERG) potassium channel (Q12809 whole entry, looked up): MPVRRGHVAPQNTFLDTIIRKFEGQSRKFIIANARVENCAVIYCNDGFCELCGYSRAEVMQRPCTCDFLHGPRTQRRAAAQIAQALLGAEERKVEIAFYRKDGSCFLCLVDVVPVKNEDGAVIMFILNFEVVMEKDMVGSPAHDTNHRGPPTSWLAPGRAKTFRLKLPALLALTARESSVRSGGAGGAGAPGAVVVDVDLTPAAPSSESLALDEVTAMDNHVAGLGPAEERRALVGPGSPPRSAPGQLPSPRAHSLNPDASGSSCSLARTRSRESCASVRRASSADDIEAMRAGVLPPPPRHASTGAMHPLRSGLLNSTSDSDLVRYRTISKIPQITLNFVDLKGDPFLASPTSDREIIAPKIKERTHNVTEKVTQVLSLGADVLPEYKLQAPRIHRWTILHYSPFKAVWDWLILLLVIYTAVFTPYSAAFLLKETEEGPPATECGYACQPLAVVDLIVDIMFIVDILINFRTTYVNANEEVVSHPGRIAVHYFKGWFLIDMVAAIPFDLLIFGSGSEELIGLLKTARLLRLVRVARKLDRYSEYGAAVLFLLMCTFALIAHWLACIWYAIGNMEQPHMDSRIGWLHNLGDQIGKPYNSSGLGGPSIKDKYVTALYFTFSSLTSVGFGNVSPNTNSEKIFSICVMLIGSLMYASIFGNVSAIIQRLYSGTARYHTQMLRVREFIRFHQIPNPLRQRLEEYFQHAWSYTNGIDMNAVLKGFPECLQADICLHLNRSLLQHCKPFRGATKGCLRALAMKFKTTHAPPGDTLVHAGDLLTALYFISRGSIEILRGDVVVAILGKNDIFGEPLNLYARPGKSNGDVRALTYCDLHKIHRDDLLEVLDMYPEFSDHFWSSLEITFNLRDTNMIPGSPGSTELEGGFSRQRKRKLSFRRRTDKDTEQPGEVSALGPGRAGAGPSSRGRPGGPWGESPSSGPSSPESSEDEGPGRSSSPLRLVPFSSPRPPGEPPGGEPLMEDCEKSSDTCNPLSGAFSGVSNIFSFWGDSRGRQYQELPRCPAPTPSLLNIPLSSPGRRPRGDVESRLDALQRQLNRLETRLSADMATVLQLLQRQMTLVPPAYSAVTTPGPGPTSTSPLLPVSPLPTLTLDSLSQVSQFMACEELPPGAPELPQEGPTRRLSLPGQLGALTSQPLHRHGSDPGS

Compound | hERG current change (%, negative = inhibition) at 1uM
CC(=O)OCC(=O)C1=CCC2C3CCC4=CC(=O)C=CC4(C)C3(F)C(OC(C)=O)CC12C (stereo not shown) | 6.8%
Cc1cc(C)cc(NC(=O)Cn2cnc3c(nnn3Cc3ccc(F)cc3)c2=O)c1 | 8.78%
COn1c(-c2ccccc2)nc2c1CCc1nonc1-2 | 5.57%
Cc1sc(NC(=O)c2ccco2)c(C(c2ccccc2)N2CCC(C)CC2)c1C (stereo not shown) | 15.8%
Nc1cc(-c2ccccc2)nn1Cc1ccccc1 | 0.188%
COc1cccc(CCNC(=O)CCc2nnc(-c3ccc4c(c3)OCO4)o2)c1 | 13.5%
Cc1ccc(NC(=O)CN(C)CC(=O)Nc2sc3c(c2C(N)=O)CCC3)cc1 | -11.5%
O=C(C1CCCN(Cc2cccnc2)C1)N1CCCCC1.O=C(O)C(=O)O (stereo not shown) | 15.4%
O=C(NC12CC3CC(CC(C3)C1)C2)N1CCC(O)(c2ccc3c(c2)OCO3)CC1 | 2.34%
CCCC[C@@H]1CNCCN1CCc1cccc(F)c1 | 8.67%
O=C(NNC(=S)NC(=O)c1ccccc1[N+](=O)[O-])c1ccccc1O | 8.16%
CCOc1ccc2[nH]c(=O)c(CN(CCN3CCCC3)C(=S)Nc3ccccc3OCC)cc2c1 | -30.2%
COC(=O)c1ccc(CSc2ccc3nnc(-c4ccc(F)cc4)n3n2)o1 | -8.96%
Cc1ccccc1N=C1N=C(N)c2ccccc21 | 2.72%
CN(Cc1cccc(F)c1)C(=O)C(c1ccccc1)c1ccccc1 | 5.63%
Cc1cc(C)nc(SCC(=O)c2ccc(F)cc2F)n1 | 3.86%
COc1ccc(C(=O)c2c[nH]c(C(=O)NCCCn3ccnc3)c2)cc1 | 6.75%
O=C(COC(=O)c1ccco1)NCCNC(=O)COC(=O)c1ccco1 | 8.83%
COCCNCCOCCOc1cccc(OC)c1 | 9.18%
CCOc1ccc(NC(=O)c2ccc(NC(=O)Cc3n[nH]c(=O)c4ccccc34)cc2)cc1 | 8.7%
CCCCOc1ccc(CCC(=O)N/N=C/c2ccco2)cc1 | 0.761%
O=C(COc1ccccc1Br)NC1CCCC1 | 12.2%

Compound | hERG current change (%, negative = inhibition) at 1uM
Cc1cccc(NC(=O)Cc2ccc(F)cc2)c1 | -4.79%
O=C(NNc1ccc(C2CCCCC2)cc1)C(O)(c1ccccc1)c1cccs1 (stereo not shown) | -9.24%
O=C(NCc1ccco1)C1CC(c2ccccc2O)=NO1 (stereo not shown) | 19.3%
Cc1ccc(S(=O)(=O)N2CCOCC2)cc1NC(=O)COC(=O)c1cc[n+]([O-])cc1 | 10%
COc1cc(N=C2C(=O)N3CCCc4cccc2c43)cc(OC)c1 | 13.9%
COC(=O)C1=C(C)OC(N)=C(C#N)C1c1cc(OC)ccc1OC (stereo not shown) | -3.2%
Clc1ccccc1OCCN1CCCCC1 | 2.28%
Cc1ccc(-c2csc(N3CCN(CCCn4c(C(F)(F)F)nc5ccccc54)CC3)n2)cc1 | 0.274%
O=C(Nc1cccc(S(=O)(=O)N2CCOCC2)c1)C1CC(=O)N(c2ccc3c(c2)OCCO3)C1 (stereo not shown) | 15%
O=C(Nc1ccc(N2CCN(c3ccccc3)CC2)c(F)c1)C1CC1 | 6.68%
Cc1cc(C(=O)CCl)c(C)n1CCc1ccc(F)cc1 | 20%
Cc1nc2nc(-c3cccs3)cn2nc1C | 12.6%
O=C(Cc1cc(=O)[nH]c(=O)[nH]1)N1CCN(C(=O)c2ccco2)CC1 | 16.4%
CC(C)(C)N1CC2(c3ccccc3)CN(C(C)(C)C)CC(c3ccccc3)(C1)C2=O | -2.44%
O=C(CN1C(=O)c2ccccc2C1=O)NCC1COc2ccccc2O1 (stereo not shown) | 9.94%
COc1ccc(C(=O)NCc2oc(-c3ccccc3)cc2C(=O)O)cc1 | 14.2%
CC(=O)Nc1ccc(N(C(=O)c2cnccn2)C(C(=O)NC2CCCCC2)c2ccc(O)cc2)cc1 (stereo not shown) | 6.54%
CCOCCCNC(=O)C(NC(=O)c1ccccc1O)c1ccc(C)cc1 (stereo not shown) | 15.6%
CC(C)N(Cc1ccccc1)C(=O)CCS(=O)(=O)c1ccc2c(c1)oc(=O)n2C | 8.54%
O=C(Nc1nnc(-c2ccccc2)s1)c1ccccc1O | -6.22%
O=C(COC(=O)Cc1ccccc1F)Nc1ccc(Cl)cn1 | 11.6%
Nc1nonc1C(=O)N/N=C/c1ccc([N+](=O)[O-])o1 | 4.4%

Compound | hERG current change (%, negative = inhibition) at 1uM
Cc1ccc(S(=O)(=O)N(Cc2nccn2C)C(C)C)cc1.Cl | 2.63%
Cc1ccc(S(=O)(=O)c2ccccc2)cc1S(=O)(=O)N1CCOCC1 | 4.58%
CCNC(=O)Nc1nc2ccccc2s1 | 8.72%
COc1ccccc1N1N=C(c2ccc([N+](=O)[O-])cc2)CC1c1ccccc1 (stereo not shown) | 18.8%
Cc1ccc2oc(=O)cc(/C=C/c3ccccc3)c2c1 | -1.69%
N#CC1(NC(=O)COC(=O)CCN=C2NS(=O)(=O)c3ccccc32)CCCCC1 | 19.4%
COc1ccccc1C(=O)N/C(=C\c1cn(C)c2ccccc12)C(=O)N1CCCC1 | 7.3%
CCn1ncc(CN2CCN(C(=O)Nc3ccccc3C(=O)OC)CC2)c1C | 4.62%
Cc1nn2c(NCc3cccnc3)c3c(nc2c1-c1ccccc1)CCC3 | -25.1%
Cc1cc(C(=O)N2CC(C)CC(C)C2)c(C)o1 (stereo not shown) | 6.62%
COc1cccc(CN2CCC(Oc3ccc(C(=O)NCc4ccccn4)cc3)CC2)c1 | 8.1%
O=C(c1cc(S(=O)(=O)N2CCOCC2)ccc1Cl)N1CCN(c2ccccn2)CC1 | 14.6%
CCCC(C)NC(=O)Cc1ccc(S(=O)(=O)N2CCOCC2)s1 (stereo not shown) | 9.67%
CCn1cc(C(=O)NCc2ccc(C)cc2)c(=O)c2cc(S(=O)(=O)N(C)C)ccc21 | 9.41%
O=C(NN1C(=O)C2C3C=CC(C4CC34)C2C1=O)c1ccccc1Cl (stereo not shown) | 6.71%
CNc1oc(Cc2ccccc2)nc1S(=O)(=O)c1ccc(Cl)cc1 | 3.2%
CC(=O)Nc1ccc(NC(=O)C(C)OC(=O)c2cccs2)cc1 (stereo not shown) | 2.86%
CN1CCO/C1=C(\C(Cl)=C(Cl)Cl)[N+](=O)[O-] | 13%
O=C1CCC(=O)N1c1ccc(S(=O)(=O)N2CCCC2)cc1 | 6.91%
COc1cc(C2Nc3cccc4cccc(c34)N2)ccc1O | 13.4%
Cc1ccc2c(CC(=O)N(CC3CCCO3)c3c(N)n(Cc4ccccc4)c(=O)[nH]c3=O)coc2c1 (stereo not shown) | 13.1%
CC(=O)Nc1ccc2c(CSc3nnc(-c4cccnc4)n3-c3ccc(C)cc3C)cc(=O)oc2c1 | 7.05%

Compound | hERG current change (%, negative = inhibition) at 1uM
Cc1cc(C)c2sc(NNC(=O)C3COc4ccccc4O3)nc2c1 (stereo not shown) | 11%
Cc1ccc2[nH]ccc(=O)c2c1 | 10.9%
CN(CCc1ccccn1)C(=O)CCC1CCCN(Cc2ccccc2OC(F)F)C1 (stereo not shown) | 11.4%
COc1cccc(-c2ccc3nnc(SCC(=O)Nc4ccc(NC(C)=O)cc4)n3n2)c1 | 10%
CN(Cc1ccccc1)C(=O)CN1C(=O)NC2(CCCCCCC2)C1=O | 0.564%
O=C(Cn1ccc([N+](=O)[O-])n1)Nc1nccs1 | 0.0851%
Nc1nc(C(c2ccccc2)c2ccccc2)cs1 | 6.86%
CCn1cc(C(=O)NCCCN2CCN(C)CC2)c(=O)c2cc(S(=O)(=O)N3CCc4ccccc4C3)ccc21 | 8.75%
CCOC(=O)[C@H]1[C@H]2COc3ccc(OC)cc3[C@@H]2N2C(=O)CN(Cc3ccc(F)cc3)C(=O)[C@@]12C | 11.2%
CC1(C)S/C(=N/N=C/c2ccco2)NC1=O | 17.4%
COc1ccc(-c2nnc(SCC(=O)NC3CCCCC3)o2)cc1OC | 1.39%
CC1CCN(C(=O)c2ccc(CSc3ccc(Cl)cc3)cc2)CC1 | -3.75%
COc1ccc(CCN2C(=O)c3cccc4cccc(c34)C2=O)cc1OC | 5.35%
CCn1c(C)nc2cc(C(=O)NNC(=O)c3ccc(Cl)nc3)ccc21 | 24.1%
COc1cc(OC)c(OC)cc1CNC(=O)CCN1C(=O)c2cccc([N+](=O)[O-])c2C1=O | 10.3%
Cc1nn(-c2ccccc2)c(C)c1/C=N/NC(=O)c1cc(O)cc(O)c1 | 8.52%
Cc1cc(Nc2ccc(Br)cc2)nc2ccccc12 | 14%
O=C(CSc1nnc2ccccn12)NNC(=O)c1cccc([N+](=O)[O-])c1 | -1.64%
CCN(CC)C(=O)C1CCN(Cc2ccc(OCc3ccccc3)c(OC)c2)CC1.O=C(O)C(=O)O | -6.42%
COP(=O)(OC)C(NS(=O)(=O)c1ccccc1)C(Cl)(Cl)Cl (stereo not shown) | 13.2%
N#C/C(C(=O)NCc1ccco1)=C1/SC=C(c2ccccc2)N1c1ccccc1 | 17.1%
CCC(C(=O)N1C[C@H]2C[C@@H](C1)c1cccc(=O)n1C2)c1ccccc1 (stereo partly shown) | 2.56%
